Test results published in the supplement of paper PMC4604168 (melanoma cell lines).
The other results are listed elsewhere or left out. Most values come without repeats; read them as rough.

Legend:
Experiment in all cases: cell count relative to DMSO control; melanoma cells; higher = more viable cells
Conditions in all cases: library dose: low library concentration; 72 h
WM115 = test system: WM115
WM1716 = test system: WM1716
WM1745 = test system: WM1745
WM3526 = test system: WM3526
WM3619 = test system: WM3619
WM451Lu = test system: WM451Lu
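Further: cell number obtained by counting DAPI-stained nuclei in high-throughput microscope images with image analysis software, screen run in 1,536-well plates.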

SMILES	cell count (WM115)	cell count (WM1716)	cell count (WM1745)	cell count (WM3526)	cell count (WM3619)	cell count (WM451Lu)
NC1(c2ccc(-c3nc4ccn5c(=O)[nH]nc5c4cc3-c3ccccc3)cc2)CCC1 + COc1ccc(Cl)c(Nc2nc3ccccc3nc2NS(=O)(=O)c2cccc(NC(=O)C(C)(C)N)c2)c1 [XL147] (first compound 0.4 µM, partner dose 0.8 µM)	74%	90.1%	90.5%	78%	92.6%	91.3%
NC1(c2ccc(-c3nc4ccn5c(=O)[nH]nc5c4cc3-c3ccccc3)cc2)CCC1 + O=C(Nc1cccc(Cl)c1)Nc1ncc(CCNc2ncnc3ccsc23)s1 [SNS314] (first compound 0.4 µM, partner dose 0.0008 µM)	58%	114%	93.4%	78.9%	101%	91%
NC1(c2ccc(-c3nc4ccn5c(=O)[nH]nc5c4cc3-c3ccccc3)cc2)CCC1 + CCN(CC)CCCCNc1ncc2cc(-c3cc(OC)cc(OC)c3)c(NC(=O)NC(C)(C)C)nc2n1 [PD173074] (first compound 0.4 µM, partner dose 0.1 µM)	79.8%	86.8%	79.7%	53.3%	89.4%	92.2%
NC1(c2ccc(-c3nc4ccn5c(=O)[nH]nc5c4cc3-c3ccccc3)cc2)CCC1 + C#Cc1cccc(Nc2ncnc3cc(OCCOC)c(OCCOC)cc23)c1 [erlotinib] (first compound 0.4 µM, partner dose 0.8 µM)	78.5%	88.7%	81.1%	69%	103%	91.1%
NC1(c2ccc(-c3nc4ccn5c(=O)[nH]nc5c4cc3-c3ccccc3)cc2)CCC1 + C=CCn1c(=O)c2cnc(Nc3ccc(N4CCN(C)CC4)cc3)nc2n1-c1cccc(C(C)(C)O)n1 [MK1775] (first compound 0.4 µM, partner dose 0.02 µM)	58.3%	84.4%	62.2%	59.3%	98.7%	112%
CN(c1ncccc1CNc1nc(Nc2ccc3c(c2)CC(=O)N3)ncc1C(F)(F)F)S(C)(=O)=O + O=C(O)C(=O)Nc1sc2c(c1C(=O)O)CCNC2 [TCS401] (first compound 0.08 µM, partner dose 1.66667 µM)	84%	89.8%	66.3%	109%	97.9%	80.5%
C=C(c1ccc(C(=O)O)cc1)c1cc2c(cc1C)C(C)(C)CCC2(C)C [Bexarotene] + COC(=O)c1sccc1S(=O)(=O)Nc1ccc(Nc2ccccc2)cc1OC [GSK0660] (first compound 2 µM, partner dose 1 µM)	92.3%	94.5%	89.9%	90.5%	94.6%	83.9%
CCCS(=O)(=O)Nc1ccc(F)c(C(=O)c2c[nH]c3ncc(Cl)cc23)c1F + Nc1cccc2c1CN(C1CCC(=O)NC1=O)C2=O [lenalidomide] (first compound 0.08 µM, partner dose 1 µM)	112%	127%	119%	81.8%	94.2%	117%
CS(=O)(=O)c1ccc(C(=O)Nc2ccc(Cl)c(-c3ccccn3)c2)c(Cl)c1 [vismodegib] + Nc1nc(F)nc2c1ncn2[C@@H]1O[C@H](CO)[C@@H](O)[C@@H]1O [fludarabine] (first compound 1 µM, partner dose 0.2 µM)	93.7%	106%	109%	37.7%	86.9%	57.6%
C=C(c1ccc(C(=O)O)cc1)c1cc2c(cc1C)C(C)(C)CCC2(C)C [Bexarotene] + C#Cc1cccc(Nc2ncnc3cc(OCCOC)c(OCCOC)cc23)c1 [erlotinib] (first compound 2 µM, partner dose 0.8 µM)	94.7%	87.5%	83.2%	79.5%	83.2%	78.4%
CS(=O)(=O)c1ccc(C(=O)Nc2ccc(Cl)c(-c3ccccn3)c2)c(Cl)c1 [vismodegib] + CS(=O)(=O)CCNCc1ccc(-c2ccc3ncnc(Nc4ccc(OCc5cccc(F)c5)c(Cl)c4)c3c2)o1 [lapatinib] (first compound 1 µM, partner dose 0.8 µM)	105%	116%	96.6%	87.3%	93.5%	102%
CN(c1ncccc1CNc1nc(Nc2ccc3c(c2)CC(=O)N3)ncc1C(F)(F)F)S(C)(=O)=O + C=CCn1c(=O)c2cnc(Nc3ccc(N4CCN(C)CC4)cc3)nc2n1-c1cccc(C(C)(C)O)n1 [MK1775] (first compound 0.08 µM, partner dose 0.02 µM)	81.8%	83.4%	68%	94.1%	74.6%	86.3%
CCCS(=O)(=O)Nc1ccc(F)c(C(=O)c2c[nH]c3ncc(Cl)cc23)c1F + Clc1ccc(Nc2nnc(Cc3ccncc3)c3ccccc23)cc1 [vatalanib] (first compound 0.08 µM, partner dose 2 µM)	90.2%	119%	76.4%	81.7%	74.7%	104%
